A collection of fitness landscapes (doi:10.1016/j.celrep.2020.107928)
Over roughly 81,000 sequences, “one-hybrid fitness for binding NBS DNA” has its median near -0.1; the highest 2% begin near 0.36. Some of the results follow.

B1: Caulobacter ParB omega fusion; a variant is named by its letters at X, in order, B8GW30 (parent)
chain: MESVVVGEPGMSEGRRGLGRGLSALLGEVDAAPAQAPGEQLGGSREAPIEILQRNPDQPRRTFREEDLEDLSNSIREKGVLQPILVRPSPDTAGEYQIVAGERAWRAAQRAGLKTVPIMVRELDDLAVLEIGIIENVQRADLNVLEEALSYKVLMEKFERTQENIAQTIGKSXSHVANXMRLLXLPDEVQSYLVSGELTAXHARAIAAAADPVALAKQIIEGGLSVRETEALARKAPNLSAGKSKGGRPPRVKDTDTQALESDLSSVLGLDVSIDHRGSTGTLTITYATLEQLDDLCNRLTRGI

Variants of: B1
Experiment: one-hybrid fitness for binding NBS DNA (the Noc-binding site; scaled: cognate 1, non-cognate 0); higher = stronger binding
Settings: with NBS DNA site
Summary of the method: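 In E. coli USO, a HIS3 reporter with its site placed 19 bp from the promoter was used to select Caulobacter ParB variants randomised at four specificity codons. Growth lasted 48 hours at 37°C on histidine-free M9 containing 0.1 mM IPTG and 5 mM 3-AT. Fitness was taken as the log change in variant-to-wild-type read ratio from Illumina sequencing of pre- and post-selection plasmids, rescaled between the non-cognate and cognate sites.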

Variant | one-hybrid fitness for binding NBS DNA
GHNT | ≤ 0.2
QKMI | ≤ 0.2
DTTI | ≤ 0.2
NKSD | ≤ 0.2
QTMA | 0.32
DHPS | ≤ 0.2
SFPG | ≤ 0.2
QFYN | ≤ 0.2
DSHP | ≤ 0.2
HATL | ≤ 0.2
VRFT | ≤ 0.2
RAPR | ≤ 0.2
LHNS | ≤ 0.2
CQQG | ≤ 0.2
FTPD | ≤ 0.2
TRIC | ≤ 0.2
RLCV | ≤ 0.2
ATID | ≤ 0.2
RMAP | ≤ 0.2
RMAS | 0.405
ENTF | ≤ 0.2
MFAR | ≤ 0.2
LFNR | ≤ 0.2
FMNS | ≤ 0.2

Variant | one-hybrid fitness for binding NBS DNA
RYEY | ≤ 0.2
VLKL | ≤ 0.2
QSIW | ≤ 0.2
KSVC | ≤ 0.2
QTAY | 0.306
RFHG | ≤ 0.2
YWLA | ≤ 0.2
QQTG | ≤ 0.2
RFHI | ≤ 0.2
FLSM | ≤ 0.2
KNAE | ≤ 0.2
KDWS | ≤ 0.2
NSSV | ≤ 0.2
PDHV | ≤ 0.2
LQVS | ≤ 0.2
LMVG | ≤ 0.2
YMGG | ≤ 0.2
VLMH | ≤ 0.2
PSEE | ≤ 0.2
VNEF | ≤ 0.2
VDVD | ≤ 0.2
AMTT | ≤ 0.2
TTAA | ≤ 0.2
SRRE | ≤ 0.2

Variant | one-hybrid fitness for binding NBS DNA
GTTF | ≤ 0.2
HQVS | ≤ 0.2
GEMS | ≤ 0.2
GFPS | ≤ 0.2
PPRC | ≤ 0.2
QGYA | ≤ 0.2
SIWC | ≤ 0.2
LMCR | ≤ 0.2
DQMT | ≤ 0.2
VRRT | 0.432
EKGT | ≤ 0.2
RETD | ≤ 0.2
GVHG | ≤ 0.2
SAEL | ≤ 0.2
FPSL | ≤ 0.2
RDWR | ≤ 0.2
HSYW | ≤ 0.2
SINK | ≤ 0.2
PDRW | ≤ 0.2
MLVR | ≤ 0.2
PGCC | ≤ 0.2
DTYT | ≤ 0.2
VTRF | ≤ 0.2
RALF | ≤ 0.2

Variant | one-hybrid fitness for binding NBS DNA
ERPD | ≤ 0.2
WETS | ≤ 0.2
EPDA | ≤ 0.2
RTQS | 0.459
NEDG | ≤ 0.2
YWPM | ≤ 0.2
GLIL | ≤ 0.2
MSRH | ≤ 0.2
RFHF | ≤ 0.2
ETFT | ≤ 0.2
SVGL | ≤ 0.2
VLCR | ≤ 0.2
EDRR | ≤ 0.2
AHQF | ≤ 0.2
RDIG | ≤ 0.2
DRWL | ≤ 0.2
SALI | ≤ 0.2
VVFR | ≤ 0.2
GNPC | ≤ 0.2
MGPV | ≤ 0.2
AFRH | ≤ 0.2
SQKR | 0.229
VKPV | ≤ 0.2
WLMS | ≤ 0.2

Variant | one-hybrid fitness for binding NBS DNA
IDPR | ≤ 0.2
RRKD | 0.226
MTQD | ≤ 0.2
HPIS | ≤ 0.2
PQPT | ≤ 0.2
KHKH | ≤ 0.2
PIPL | ≤ 0.2
RRHI | 0.228
SVYW | ≤ 0.2
RPKP | ≤ 0.2
PWMI | ≤ 0.2
PWDI | ≤ 0.2
NQCG | ≤ 0.2
IGLG | ≤ 0.2
QGKY | ≤ 0.2
TLWA | ≤ 0.2
PQHA | ≤ 0.2
LSIC | ≤ 0.2
CGYR | ≤ 0.2
PCML | ≤ 0.2
KSNC | ≤ 0.2
SLHG | ≤ 0.2
HRDS | ≤ 0.2
RSQE | ≤ 0.2

Variant | one-hybrid fitness for binding NBS DNA
SRIK | ≤ 0.2
CHDC | ≤ 0.2
DCRY | ≤ 0.2
KVNG | ≤ 0.2
SPRH | ≤ 0.2
TLMD | ≤ 0.2
CAKS | ≤ 0.2
HAKD | ≤ 0.2
THTE | ≤ 0.2
ICYG | ≤ 0.2
HPTP | ≤ 0.2
RLVE | ≤ 0.2
PCVA | ≤ 0.2
NMTI | ≤ 0.2
RAYD | ≤ 0.2
MDAY | ≤ 0.2
TQVR | ≤ 0.2
DAVR | ≤ 0.2
HITT | ≤ 0.2
DFQA | ≤ 0.2
NNGC | ≤ 0.2
WAFG | ≤ 0.2
CLEI | ≤ 0.2
GHVS | ≤ 0.2

Variant | one-hybrid fitness for binding NBS DNA
ENIG | ≤ 0.2
SWNT | ≤ 0.2
QYYC | ≤ 0.2
KNKS | ≤ 0.2
PPYY | ≤ 0.2
PTTY | ≤ 0.2
KRYL | ≤ 0.2
PSEC | ≤ 0.2
KRCW | ≤ 0.2
THDY | ≤ 0.2
QVTD | ≤ 0.2
RREI | ≤ 0.2
YFSY | ≤ 0.2
HQSD | ≤ 0.2
NEYG | ≤ 0.2
VFNT | ≤ 0.2
NSLC | ≤ 0.2
SRGT | ≤ 0.2
SFEW | ≤ 0.2
DNMC | ≤ 0.2
ANES | ≤ 0.2
RCPW | ≤ 0.2
MRCF | ≤ 0.2
RGNA | ≤ 0.2

Variant | one-hybrid fitness for binding NBS DNA
RWVN | ≤ 0.2
RNPS | ≤ 0.2
VWAF | ≤ 0.2
AEPI | ≤ 0.2
GTQR | ≤ 0.2
YICG | ≤ 0.2
GPIT | ≤ 0.2
IYQG | ≤ 0.2
LTYL | 0.229
LNVP | ≤ 0.2
SSAV | ≤ 0.2
DVRV | ≤ 0.2
RNRC | ≤ 0.2
WNKT | ≤ 0.2
DKVS | ≤ 0.2
CRVG | ≤ 0.2
WTRC | ≤ 0.2
MVSE | ≤ 0.2
PSPE | ≤ 0.2
ANNL | ≤ 0.2
LTTC | ≤ 0.2
CDPS | ≤ 0.2
AREC | ≤ 0.2
DWEL | ≤ 0.2

Variant | one-hybrid fitness for binding NBS DNA
FWPW | ≤ 0.2
SPQR | ≤ 0.2
TIAL | ≤ 0.2
VHGG | ≤ 0.2
SFVS | ≤ 0.2
SDKW | ≤ 0.2
KTNI | ≤ 0.2
CIWR | ≤ 0.2
NIVV | ≤ 0.2
EQYP | ≤ 0.2
SRMI | ≤ 0.2
LSVY | ≤ 0.2
LRPA | ≤ 0.2
MTHA | ≤ 0.2
YSCE | ≤ 0.2
KMIK | ≤ 0.2
SRNN | ≤ 0.2
QRSE | 0.22
TFDK | ≤ 0.2
LIAT | ≤ 0.2
AGQN | ≤ 0.2
RECC | ≤ 0.2
HRDQ | ≤ 0.2
FDSW | ≤ 0.2

Variant | one-hybrid fitness for binding NBS DNA
NRWC | ≤ 0.2
RFPS | ≤ 0.2
PCRC | ≤ 0.2
CMNM | ≤ 0.2
QAPA | ≤ 0.2
WNKP | ≤ 0.2
QANY | ≤ 0.2
PKPV | ≤ 0.2
RMSC | ≤ 0.2
ETYS | ≤ 0.2
FWMC | ≤ 0.2
YDSG | ≤ 0.2
TWNR | ≤ 0.2
WRDR | ≤ 0.2
FILT | ≤ 0.2
CPPS | ≤ 0.2
DAHV | ≤ 0.2
ARSE | ≤ 0.2
MTPE | ≤ 0.2
HHSM | ≤ 0.2
EMGS | ≤ 0.2
DFNG | ≤ 0.2
VFLS | ≤ 0.2
VTYR | ≤ 0.2

Variant | one-hybrid fitness for binding NBS DNA
ASAM | ≤ 0.2
EPFW | ≤ 0.2
KLMG | ≤ 0.2
RVYA | ≤ 0.2
MHNT | ≤ 0.2
RAAR | 0.385
PCKR | 0.205
LFTR | ≤ 0.2
KAHV | ≤ 0.2
WVYT | ≤ 0.2
TMTT | ≤ 0.2
GERC | ≤ 0.2
VCTK | ≤ 0.2
RMIH | ≤ 0.2
QPNG | ≤ 0.2
VVTN | ≤ 0.2
CTDW | ≤ 0.2
QEAE | ≤ 0.2
TLPG | ≤ 0.2
VRVT | ≤ 0.2
PYAR | ≤ 0.2
LDHY | ≤ 0.2
ERPW | ≤ 0.2
FNCC | ≤ 0.2

Variant | one-hybrid fitness for binding NBS DNA
FHIF | ≤ 0.2
MYWS | ≤ 0.2
FDDS | ≤ 0.2
DANG | ≤ 0.2
GPWC | ≤ 0.2
ESMT | ≤ 0.2
HMDM | ≤ 0.2
CWVT | ≤ 0.2
ARGQ | ≤ 0.2
VFTK | ≤ 0.2
MNYR | ≤ 0.2
FAAS | ≤ 0.2
ASAE | ≤ 0.2
IHCL | ≤ 0.2
ADVR | ≤ 0.2
PNGC | ≤ 0.2
HIYT | ≤ 0.2
NHAC | ≤ 0.2
VKGT | ≤ 0.2
IFPY | ≤ 0.2
PLTF | ≤ 0.2
GYQT | ≤ 0.2
MYPT | ≤ 0.2
ALDN | ≤ 0.2

Variant | one-hybrid fitness for binding NBS DNA
TAAP | ≤ 0.2
EPRF | ≤ 0.2
YTQG | ≤ 0.2
RDCW | ≤ 0.2
LWET | ≤ 0.2
TPKQ | ≤ 0.2
LFAT | ≤ 0.2
RGPK | ≤ 0.2
YSQW | ≤ 0.2
WGYG | ≤ 0.2
IWQV | ≤ 0.2
SGVG | ≤ 0.2
KTES | ≤ 0.2
PCHT | ≤ 0.2
AHTI | ≤ 0.2
YESP | ≤ 0.2
CSVV | ≤ 0.2
KPIC | ≤ 0.2
